The other results are listed elsewhere or left out.
Tested on: S. aureus RN4220
Test: growth inhibition call (relative growth <= 0.2)
Details: 50 µM

Growth inhibition call, inactive:
C[C@@H]1CN([C@H](C)CO)C(=O)c2cc(NC(=O)Nc3cccc4ccccc34)ccc2O[C@@H](C)CCCCO[C@@H]1CN(C)C(=O)NC1CCCCC1, C[C@H](CO)N1C[C@H](C)[C@H](CN(C)CC2CC2)Oc2ccc(NS(=O)(=O)c3ccc(F)cc3)cc2C1=O, C[C@@H]1CCCCO[C@@H](CN(C)CC2CC2)[C@H](C)CN([C@H](C)CO)C(=O)c2cc(NC(=O)CCC(F)(F)F)ccc2O1, CO[C@H]1CN(C)C(=O)c2ccc(NC(=O)Nc3cccc(Cl)c3)cc2OC[C@@H](C)N(C(=O)Nc2c(C)noc2C)C[C@H]1C, NC[C@@H](O)c1ccc2ccccc2c1, C[C@H](CO)N1C[C@H](C)[C@@H](CN(C)C(=O)NC2CCCCC2)OCCCC[C@H](C)Oc2ccc(NC(=O)Nc3ccccc3)cc2C1=O, CC(C)NC(=O)Nc1cccc2c1O[C@H](CN(C)S(=O)(=O)c1ccc(Cl)cc1)[C@@H](C)CN([C@@H](C)CO)C2=O, Cc1cccc(S(=O)(=O)N2C[C@H](O)COC[C@@H]3O[C@H](CC(=O)NCCCN4CCOCC4)CC[C@H]32)c1, COc1ccc(NC(=O)Nc2ccc3c(c2)C(=O)N([C@H](C)CO)C[C@H](C)[C@H](CN(C)CC2CCCCC2)OCCCC[C@@H](C)O3)cc1, C[C@@H]1CN([C@H](C)CO)C(=O)Cc2cc(NC(=O)NC3CCCCC3)ccc2O[C@H]1CN(C)S(=O)(=O)c1cn(C)cn1, Nc1ccc(-c2ccco2)cc1, CCCNS(=O)(=O)c1c[nH]c(C(=O)OC)c1, C[C@H](NC(=O)[C@@H]1CCCC[C@H]1C(=O)O)c1ccccc1.C[C@H](NC(=O)[C@H]1CCCC[C@H]1C(=O)O)c1ccccc1, NC(=O)c1ccc[n+](CC(=O)c2ccccc2)c1, Cc1ccccc1OC[C@@H](O)CO, CC(C)NC(=O)Nc1ccc2c(c1)CC(=O)N([C@H](C)CO)C[C@@H](C)[C@H](CN(C)Cc1ccc(-c3ccccc3)cc1)O2, NC(=O)N1C(=O)[C@H]2[C@H](C1=O)[C@H]1C=C(c3ccc(CO)cc3)[C@@H]2[C@@H](C2CC2)N1Cc1cc2c(cc1Br)OCO2, C[C@@H]1CN([C@@H](C)CO)C(=O)Cc2cc(NC(=O)Nc3ccc(F)cc3)ccc2O[C@@H]1CN(C)Cc1ccc(Oc2ccccc2)cc1, COc1ccc(NC(=O)Nc2ccc3c(c2)C(=O)N([C@@H](C)CO)C[C@@H](C)[C@@H](CN(C)Cc2ccc(Cl)c(Cl)c2)O3)cc1, COc1cccc(S(=O)(=O)Nc2ccc3c(c2)[C@@H]2C[C@@H](CC(=O)NCc4ccccc4F)O[C@@H](CO)[C@@H]2O3)c1, C[C@@H]1CN([C@H](C)CO)C(=O)c2cccc(NC(=O)c3cnccn3)c2O[C@H]1CN(C)Cc1ccncc1, O=C(C[C@@H]1C[C@@H]2c3cc(NC(=O)C4CCOCC4)ccc3O[C@@H]2[C@@H](CO)O1)NCc1cc(F)ccc1F, O=C1O[C@@H](c2ccccc2)[C@@H](c2ccccc2)N2[C@@H](c3ccc(OCCO)cc3)[C@]3(C(=O)Nc4ccc(C#CC5(O)CCCCCC5)cc43)[C@@H](C(=O)NC[C@H](O)c3ccccc3)[C@H]12, Cl.N=C(N)NC(=N)NCCc1ccccc1, C[C@@H]1CN([C@@H](C)CO)S(=O)(=O)c2ccc(C#Cc3cccc(F)c3)cc2O[C@@H]1CN(C)S(=O)(=O)c1ccccc1F, C[C@@H]1CN([C@H](C)CO)C(=O)Cc2cc(NC(=O)Cc3cn(C)c4ccccc34)ccc2O[C@@H]1CN(C)CC1CCCCC1, C[C@@H]1CN([C@@H](C)CO)C(=O)c2cc(NC(=O)NC3CCCCC3)ccc2O[C@@H](C)CCCCO[C@H]1CN(C)Cc1ccccc1, COc1ccc(S(=O)(=O)N(C)C[C@H]2Oc3ccc(NC(=O)CCCN(C)C)cc3C(=O)N([C@H](C)CO)C[C@@H]2C)cc1, Cc1noc(C)c1NC(=O)N(C)C[C@@H]1OCCCC[C@@H](C)Oc2ccc(NC(=O)NC3CCCCC3)cc2C(=O)N([C@H](C)CO)C[C@@H]1C, C[C@H]1CN([C@@H](C)CO)C(=O)Cc2cc(NS(=O)(=O)c3cccs3)ccc2O[C@H]1CN(C)Cc1ccc(-c2ccccc2)cc1

— the antibiotic and cytotoxicity screens of Wong et al. (2023)
